Test results published in PMC4336329 (PLoS ONE, 2015).
The whole screen tested about 310,000 compounds, of which about 14,000 (4.5%) showed an effect of 50% or more. Effects have a minus sign here. This is one part of the list.

Biological target: human ether-à-go-go-related gene (hERG) potassium channel (human, UniProt Q12809)
Test: primary screen, population patch clamp on CHO cells stably expressing hERG
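Further: peak tail current of the secondary pulse compared with the same well before compound.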

Chain of human ether-à-go-go-related gene (hERG) potassium channel (Q12809 whole entry, looked up): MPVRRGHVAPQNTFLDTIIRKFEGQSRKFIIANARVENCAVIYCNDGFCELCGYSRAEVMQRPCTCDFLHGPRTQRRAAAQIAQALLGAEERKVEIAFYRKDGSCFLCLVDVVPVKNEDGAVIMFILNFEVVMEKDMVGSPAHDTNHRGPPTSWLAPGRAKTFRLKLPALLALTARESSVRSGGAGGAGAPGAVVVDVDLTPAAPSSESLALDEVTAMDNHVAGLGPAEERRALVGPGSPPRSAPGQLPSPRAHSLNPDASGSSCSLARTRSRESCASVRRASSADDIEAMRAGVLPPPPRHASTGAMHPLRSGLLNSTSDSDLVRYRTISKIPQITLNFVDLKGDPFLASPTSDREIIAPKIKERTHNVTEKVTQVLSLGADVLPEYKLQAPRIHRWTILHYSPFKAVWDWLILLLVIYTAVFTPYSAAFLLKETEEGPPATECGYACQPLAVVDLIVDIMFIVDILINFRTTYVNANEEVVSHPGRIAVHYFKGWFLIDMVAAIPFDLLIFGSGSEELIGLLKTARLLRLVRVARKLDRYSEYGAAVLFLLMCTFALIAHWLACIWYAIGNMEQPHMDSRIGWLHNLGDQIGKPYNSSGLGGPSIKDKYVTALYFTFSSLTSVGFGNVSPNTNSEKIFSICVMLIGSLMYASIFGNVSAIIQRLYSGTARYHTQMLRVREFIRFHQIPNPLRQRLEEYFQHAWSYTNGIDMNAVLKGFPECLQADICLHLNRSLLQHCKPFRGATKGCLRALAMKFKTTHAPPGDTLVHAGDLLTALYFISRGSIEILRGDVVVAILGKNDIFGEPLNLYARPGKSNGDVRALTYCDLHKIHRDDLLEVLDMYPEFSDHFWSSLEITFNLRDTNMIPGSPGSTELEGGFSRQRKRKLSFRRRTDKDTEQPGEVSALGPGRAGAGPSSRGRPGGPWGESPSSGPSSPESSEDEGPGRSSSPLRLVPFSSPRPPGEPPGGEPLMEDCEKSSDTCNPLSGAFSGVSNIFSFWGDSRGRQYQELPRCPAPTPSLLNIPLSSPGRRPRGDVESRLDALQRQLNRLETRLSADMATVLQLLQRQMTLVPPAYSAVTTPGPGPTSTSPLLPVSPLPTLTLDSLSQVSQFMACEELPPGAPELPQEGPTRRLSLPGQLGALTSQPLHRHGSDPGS

Going from COCC(=O)N1CCC(Oc2ccc(C(=O)N3CCCCCC3)cc2)CC1 to Cc1cccc(CN2CCCC(C(=O)N3CCCCC3)C2)c1.O=C(O)C(=O)O (centres unmarked), the “hERG current change (%, negative = inhibition) at 10uM” value rises from 12.1% to 15.5%.

First: CC(C)c1ccc(NC(=O)C2CCC(CNC(=O)[C@@H]3Cc4ccccc4CN3)CC2)cc1 (some centres unmarked)
Second: CN1C(=O)C(C)(C)c2cc(S(=O)(=O)NCC3CCC(C(=O)NCc4ccccc4)CC3)ccc21 (centres unmarked)
The “hERG current change (%, negative = inhibition) at 10uM” value of the first is lower: 9.65% for the first, 18.5% for the second.

Going from N#Cc1ccccc1NC(=O)CN1CCOCC1 to O=C(CCSc1nnc(-c2ccccc2)o1)N1CCOCC1, the “hERG current change (%, negative = inhibition) at 10uM” value falls from 13.4% to -5.66%.

First: COc1ccc(NC(=O)Nc2ccc3c(c2)CCC3)cc1OC
Second: COc1cc2c(cc1OC)CN(C(=O)CSc1n[nH]c(N)n1)CC2
The “hERG current change (%, negative = inhibition) at 10uM” value of the first is higher: 19.9% for the first, 8.23% for the second.

Going from C=CCN1C(=O)C(Cc2ccccc2)SC1=Nc1ccc(C(=O)O)cc1 (centres unmarked) to COC(=O)CN1C(=O)COc2ccc(S(=O)(=O)NCc3ccccc3)cc21, the “hERG current change (%, negative = inhibition) at 10uM” value rises from -3.37% to 1.23%.

Going from CC(C)NC(=O)c1cc(=O)n(C)c(=O)n1C to CCOP(=O)(OCC)C(O)c1ccc(OC)c(OC)c1 (centres unmarked), the “hERG current change (%, negative = inhibition) at 10uM” value rises from 12.7% to 15.6%.

Going from O=C(Nc1nc2ccccc2[nH]1)c1ccc(Cl)c([N+](=O)[O-])c1 to COc1ccccc1NC(=O)c1cc[n+](C)cc1.[I-], the “hERG current change (%, negative = inhibition) at 10uM” value rises from 0.857% to 18.4%.

Going from COc1ccc(CNC(=O)C2CC(c3cccc(OC)c3)=NO2)cc1 (centres unmarked) to COC(=O)COc1ccc(S(=O)(=O)NCc2ccco2)cc1, the “hERG current change (%, negative = inhibition) at 10uM” value rises from -12.2% to 8.99%.

Going from Clc1ccc(OCCSc2ncccn2)c(Br)c1 to O=C(NCC(c1ccc(F)cc1)N1CCOCC1)c1cccnc1Sc1ccc(Cl)cc1 (centres unmarked), the “hERG current change (%, negative = inhibition) at 10uM” value falls from 24.1% to -34.5%.

First: CN(Cc1cn(C)nc1-c1ccccc1F)CC1CCCCO1 (centres unmarked)
Second: Cc1cccc(OCCCN2CCOCC2)c1C
The “hERG current change (%, negative = inhibition) at 10uM” value of the first is lower: -2.75% for the first, 11.2% for the second.

First: CC(/C=N/n1c(-c2cc(C)[nH]n2)n[nH]c1=S)=C\c1ccccc1
Second: Cc1cnc(-n2c(=S)[nH]c3ccccc3c2=O)s1
The “hERG current change (%, negative = inhibition) at 10uM” value of the first is higher: 14.7% for the first, -1.3% for the second.

Going from CCOC(=O)C(NC(=O)CC)(Nc1ccc(C(O)(C(=O)OCC)C(F)(F)F)cc1C)C(F)(F)F (centres unmarked) to Cc1cc(NC(=O)CSCC(=O)OCC(=O)Nc2ccc(OC(F)F)cc2)no1, the “hERG current change (%, negative = inhibition) at 10uM” value falls from -2.45% to -6.01%.

Compared with CCN(CC)S(=O)(=O)c1ccc(-c2nnc(SCC(=O)N3c4ccccc4CC3C)n2CC)cc1 (centres unmarked), COc1ccccc1/C=C/C(=O)NC(=S)Nc1ccc(S(=O)(=O)N(C)c2ccccc2)cc1 is lower in “hERG current change (%, negative = inhibition) at 10uM” value: 12.2% for the first, 11.6% for the second.

First: Cc1cc(NC(=O)CCC(=O)N(C2CC2)C2(C(=O)NC3CCCC3)CCC(C)CC2)no1 (centres unmarked)
Second: O=C(NC1CCCCC1)C(c1ccc(F)cc1)N(C(=O)c1csnn1)C1CC1 (centres unmarked)
The “hERG current change (%, negative = inhibition) at 10uM” value of the first is lower: -3.43% for the first, 13.2% for the second.

Compared with Cc1c(NC(=S)N2CCN(c3ccc(F)cc3)CC2)c(=O)n(-c2ccccc2)n1C, COc1ccc(-c2nnc3n(CCc4ccccc4)c(=O)c4ccccc4n23)cc1OC is lower in “hERG current change (%, negative = inhibition) at 10uM” value: 2.39% for the first, -20.6% for the second.

Compared with O=C(CN1C(=O)NC2(CCCCCCC2)C1=O)NC1CCCc2ccccc21 (centres unmarked), O=[N+]([O-])c1cccnc1N1CCC(c2cc(-c3cccc(C(F)(F)F)c3)n[nH]2)CC1 is lower in “hERG current change (%, negative = inhibition) at 10uM” value: 3.29% for the first, -13.7% for the second.

First: CNc1cc(C)nc(-n2nc(C)cc2C)n1
Second: COc1ccc(Nc2cc(C)nc3nc(C)nn23)c(OC)c1
The “hERG current change (%, negative = inhibition) at 10uM” value of the first is lower: -10.3% for the first, -4.34% for the second.

Going from O=C(C[n+]1cn(C(F)F)c2ccccc21)c1ccc(OC(F)F)cc1.[Br-] to O=C(Nc1nnc(-c2ccncc2)s1)Nc1ccccc1F, the “hERG current change (%, negative = inhibition) at 10uM” value rises from -74.9% to 14.2%.

Going from Cc1sc(NC(=O)COc2cccc(-n3cnnn3)c2)c(C#N)c1C to CCOC(=O)c1cnn(CCOC(=O)Cc2cccs2)c1NC(=O)Cc1cccs1, the “hERG current change (%, negative = inhibition) at 10uM” value falls from -0.605% to -17.6%.

Compared with Cc1ccc2[nH]c(C(F)(F)F)cc(=O)c2c1, CC1Cc2cc(/C=C3/SC(=S)N(C)C3=O)ccc2O1 (centres unmarked) is higher in “hERG current change (%, negative = inhibition) at 10uM” value: 15.4% for the first, 17.6% for the second.

Compared with CCn1cc(/C=N\NC(=O)C2(C)CC2(Cl)Cl)c(C)n1 (centres unmarked), CCOc1cc(N2CCOCC2)c(OCC)cc1NC(=O)COC(=O)CCOc1ccc(C)cc1 is lower in “hERG current change (%, negative = inhibition) at 10uM” value: 10% for the first, -3.51% for the second.

Compared with O=C(O)C/C(=C\c1ccc2c(c1)OCO2)c1nc2ccccc2s1, CCCNC(=O)C(Cc1cccc(C#N)c1)NC(=O)c1ccc(C#N)cc1 (centres unmarked) is lower in “hERG current change (%, negative = inhibition) at 10uM” value: 3.82% for the first, -55.9% for the second.
